# Test results published in PubChem BioAssay AID463173 (ICCB-Longwood Screening Facility, Harvard Medical School, 2010).
# In all, about 52,000 compounds went through this assay and about 4,300 (8.3%) were called active. Rule as the data show it: active = survival mostly below about 52% (no sharp cut-off); inactive = mostly above about 56%. Some of the results follow.
# Test system: DeltatarO mutant
# Experiment: growth inhibition of S. aureus wild type versus tarO mutant, primary screen, teichoic acid synthesis inhibitors, RN4220, OD600 (AID 463173)
# Conditions: OD600, 18 h, stronger effect = lower value, screened at 18.75 µg/mL (by protocol)
row,SMILES,survival
1,O=C(CN1CCOCC1)Nc1nc(-c2ccc3c(c2)CCN3S(=O)(=O)c2ccccc2)cs1,inactive: 70%
2,Cc1ccc(S(=O)(=O)Nc2cc(Cl)c3oc4c(c3c2)CCCC4)cc1,inactive: 117%
3,O=C(NCCc1ccccc1)c1ccc2c(c1)nc1n2CCOC1,inactive: 109%
4,CCOc1ccc(CNC(=O)CSc2c3c(nc4cc(Cl)ccc24)CCCC3)cc1,inactive: 51%
5,COC(=O)C1C(c2ccccc2)C(C(=O)N2CCOCC2)C1c1ccccc1 (stereo not given),inactive: 107%
6,COc1ccccc1CNC(=O)CCS(=O)(=O)c1ccc2c(c1)oc(=O)n2C,inactive: 76%
7,CCOC(=O)c1cccc(NC(=O)CSc2ncc3c(n2)-c2ccc(Cl)cc2N(Cc2ccccc2)S3(=O)=O)c1,inactive: 95%
8,Cc1c(-c2nsc(NC(=O)c3cccs3)n2)nnn1-c1ccc(F)cc1,inactive: 82%
9,Cc1cccc(OC(=O)c2snnc2C)c1,inactive: 88%
10,Cc1cccc(C)c1Nc1c(-c2ccccn2)nc2ccc(Cl)cn12,inactive: 135%
11,COc1ccc(-c2nc(CSCC(=O)N3CCN(c4ccccc4F)CC3)c(C)o2)cc1,active: 35%
12,Cn1cc(S(=O)(=O)N2CCCCCC2)cc1C(=O)NCc1ccc(F)cc1,inactive: 76%
13,O=C(NCc1ccccc1)NC1COc2ccccc2C1 (stereo not given),inactive: 115%
14,COc1ccc(-c2nsc3c(N4CCCCC4C)ncnc23)cc1 (stereo not given),inactive: 87%
15,O=C(Nc1ccc(N2CCOCC2)cc1)C12CC3CC(CC(C3)C1)C2,inactive: 92%
16,CCN(C(=O)Cn1c(=O)oc2cc(S(=O)(=O)N3CCCCCC3)ccc21)c1cccc(C)c1,inactive: 76%
17,O=c1[nH]n(CC2COC(c3ccccc3)O2)c(=O)c2ccccc12 (stereo not given),inactive: 77%
18,O=C(CCS(=O)(=O)c1ccc(Br)s1)Nc1cc(C(F)(F)F)cc(C(F)(F)F)c1,active: 42%
19,CCOc1ccccc1CNC(=O)c1ccc2nc(N3CCC(C)CC3)sc2c1,inactive: 95%
20,Cc1ccccc1Nc1c(-c2ccc(N3CCOCC3)cc2)nc2cccc(C)n12,inactive: 75%

row,SMILES,survival
1,CCC(C)Nc1nc2c(c(=O)[nH]c(=O)n2C)n1Cc1ccc(F)cc1 (stereo not given),inactive: 73%
2,Cc1ccc(-n2ncc3c(NCCc4ccc(S(N)(=O)=O)cc4)ncnc32)cc1,inactive: 84%
3,CCCCOC(=O)CSc1ncnc2sc3c(c12)CCC(C)C3 (stereo not given),active: 17%
4,CC1=C(c2ccc(C)cc2)S(=O)(=O)NC1=NCc1ccccc1Cl,inactive: 77%
5,COC(=O)c1cc2sccc2n1Cc1nc(-c2cccc(Cl)c2)oc1C,inactive: 83%
6,C=Cc1ccc(Cn2c(C(=O)O)c(CNCCc3ccco3)c3ccc(C)cc32)cc1,inactive: 119%
7,O=C(NCCc1ccc(Cl)cc1)c1ccc(Nc2nc3ccccc3n3nnnc23)cc1,inactive: 94%
8,COCCn1c(-c2ccccc2)n[nH]c1=S,inactive: 105%
9,COc1ccc(CNCc2ccc(C(=O)O)s2)cc1,inactive: 101%
10,Cc1cccc(NC(=O)C(=O)NCCCN2CCOCC2)c1,inactive: 142%
11,CCOc1ccc(NC(=O)c2sc(-n3nc(C)c(CCC(C)C)c3C)nc2C)cc1,inactive: 102%
12,COc1ccc(NC(=O)c2nc(SCc3ccc(F)cc3)ncc2Cl)cc1,inactive: 69%
13,COc1cccc(CNC(=O)CN2C(=O)COc3ccc(S(=O)(=O)N4CCCCC4)cc32)c1,inactive: 95%
14,CCn1cc2nc(SCc3cc(C)ccc3C)n(Cc3ccc(Cl)cc3)c(=O)c2n1,inactive: 86%
15,CCN(CC)c1ccc(CN(C(=O)c2cc(=O)c3ccccc3o2)C2CCS(=O)(=O)C2)cc1 (stereo not given),inactive: 52%
16,Nc1ccc2nc(-c3ccc(N)c(Cl)c3)[nH]c2c1,inactive: 98%
17,Cn1cc(S(=O)(=O)N2CCCC2)cc1C(=O)Nc1ccc(F)cc1F,inactive: 77%
18,CCOC(=O)c1ccc(NC(=O)Cc2noc3ccc(C)cc23)cc1,active: 45%
19,Cn1ccc2cc(S(=O)(=O)N3CCCC(C(=O)NCc4ccccc4F)C3)ccc21 (stereo not given),inactive: 92%
20,CCc1nc2ccccc2n1CC(C)C(=O)O (stereo not given),inactive: 96%

row,SMILES,survival
1,CN(C)c1ccc(NC(=O)CSc2nc(N)cc(=O)[nH]2)cc1,inactive: 101%
2,Cc1ccccc1-c1nc(CNC(=O)NC2CCCCC2)c(C)o1,inactive: 67%
3,CCCCN(CCCC)CCCNC(=O)c1cc(-c2ccc(Cl)s2)nc2ccccc12,inactive: 71%
4,CC(C)c1ccc(C2CC(=O)N3CN(C4CCCCC4)CSC3=C2C#N)cc1 (stereo not given),inactive: 69%
5,COc1ccc(-n2ncc3c2ncn2nc(-c4ccc(OC)c(OC)c4)nc32)cc1,inactive: 66%
6,CC1=C(C(=O)Nc2ccccc2)C(c2ccc(Br)cc2)n2nc(CCCO)nc2N1 (stereo not given),inactive: 56%
7,CCCc1cc(=O)[nH]c(Nc2cc(Cl)cc(Cl)c2)n1,active: 6%
8,COc1ccccc1N1CCN(C(=O)c2nn(C)c3c2CS(=O)(=O)c2ccccc2-3)CC1,inactive: 61%
9,Cc1nc(-c2ccc(S(=O)(=O)N3CCN(c4ccccc4F)CC3)cc2)co1,inactive: 94%
10,CCC(CC)C(=O)Nc1ccc(S(=O)(=O)N2CCC(c3nc4ccccc4s3)CC2)cc1,inactive: 67%
11,FC(F)(F)c1cccc(Nc2nc3nonc3nc2Nc2ccc(Cl)cc2)c1,active: -16%
12,COc1ccc(C)cc1NC(=O)CN(C)S(=O)(=O)c1ccc2c(c1)c(=O)n(C)c(=O)n2C,inactive: 78%
13,Cc1ccccc1NC(=O)c1c(C)oc2ccc(O)c(CN3CCCCCC3)c12,inactive: 107%
14,CCN(C(=O)Cn1c(C(=O)OC)cc2sccc21)c1cccc(C)c1,inactive: 93%
15,Cc1ccccc1NC(=O)c1sc2nc(-c3cc4ccccc4oc3=O)[nH]c(=O)c2c1C,inactive: 52%
16,COc1ccc(/C=C/C(=O)NCc2ccccn2)cc1OC,inactive: 81%
17,CCCn1cc(S(=O)(=O)c2ccc(C)c(C)c2)c(=O)c2cc(F)c(N3CCCCC3)cc21,inactive: 113%
18,CC1SC(=NC(=O)c2ccco2)NC1=O (stereo not given),inactive: 106%
19,O=C(CC(c1ccccc1)C1CCCCC1=O)c1ccco1 (stereo not given),inactive: 81%
20,CCCCC12CN3CC(C)(CN(C1)C3c1ccc(OCc3ccccc3)cc1)C2=O (stereo not given),inactive: 78%
